The test system of the test is neurogenesis.

Take `CC(C)C[C@@H](NC(=O)[C@H](Cc1ccccc1)NC(=O)CNC(=O)[C@@H](C)NC(=O)[C@@H](N)Cc1ccc(O)cc1)C(=O)O` [DADLE, [D-Ala^2,D-Leu^5]enkephalin]: the induction of neurogenesis entry is given as “robustly induces neurogenesis”.

The values above are taken from US20100317578A1, “METHOD OF PROTECTING AGAINST STROKE THROUGH THE USE OF A DELTA OPIOID PEPTIDE” (priority 2009, published 2010).
